The other results are listed elsewhere or left out.

Sequences and labels used below:
B1: chr14:75048437:75048538:-|CDS|ENSG00000119684|unk|FALSE|unique (ssRNA)
RNA: GGGAGUUCUACAGUCCGACGAUCUCAGAAGCGUGUGACUUCCGAUGAGAGGAGCAAUUUCCAGGAAGCAUGUAAUAAUAUUUUAGAUUCCUAUGAGAUGUUUAAUUUGCAGUCAAAAGCUGUGAAAAGAAAAACUACUGCAGACAACAGAGGAUUGAGCAUCA
B2: chr10:73479331:73479449:-|CDS|ENSG00000107758|unk|FALSE|unique (ssRNA)
RNA: GGGAGUUCUACAGUCCGACGAUCGUUGAUGUUCUGAAGAACCACUUGGUGAAAGAAGGUCGAGUAGAUGAAGAAAUUGCGCUUAGAAUUAUCAAUGAGGGUGCUGCCAUCCUUCGGAGAGAGAAAACCAUGAUAGAAGUAGAACAACAGAGGAUUGAGCAUCA
B3: chr10:73917138:73917420:+|3pUTR|ENSG00000122861|msi1|FALSE|unique (ssRNA)
RNA: GGGAGUUCUACAGUCCGACGAUCGGAAUGUAUUAUUCUGCAGCAUGACCUGUGACCAGCACUGUCUCAGUUUCACUUUCACAUAGAUGUCCCUUUCUUGGCCAGUUAUCCCUUCCUUUUAGCCUAGUUCAUCCAAUCCUCACUCAACAGAGGAUUGAGCAUCA
B4: chr2:1632407:1632508:-|3pUTR|ENSG00000130508|msi1|FALSE|unique (ssRNA)
RNA: GGGAGUUCUACAGUCCGACGAUCUUGGUAAGUGAUUGAUAAAAAUUGGUUGGUGUUUCAUGACAUGUGGACUUCUUUUGAAAUAGCAAGUCAAAUGUAGUGACCAAAUUGUGGAAGAGAUUUCUGUCAAAUAGGAAAUGUGUACAACAGAGGAUUGAGCAUCA
B5: chr1:10469171:10469279:-|CDS|ENSG00000160049|unk|total|mutant (ssRNA)
RNA: GGGAGUUCUACAGUCCGACGAUCGUGGAUGAUGACGAUUACUUUCUGUGUCUACCUUCCAAUACUAAGUUUGUGGCAUUGGCCCGUAAUGAGAAAUGGGCAUACAACAAUUCAGGUAAGAAACUCCCGCCAUGUAUAAAACGGCAACAGAGGAUUGAGCAUCA
B6: chr11:113738268:113738383:-|CDS|ENSG00000086827|unk|FALSE|unique (ssRNA)
RNA: GGGAGUUCUACAGUCCGACGAUCUGCUUUUUGGCCCAAAUGCGGGCACAGAAAGGUGAACUUCUGGAAAGAUUAUCAAGUGCUAGGAACUUUUCAAAUAUGGACGAUGAAGAGAAUUAUUCUGCAGCAAGUAAAGCAGUCCGGCAACAGAGGAUUGAGCAUCA
B7: chr19:44386474:44388102:-|CDS|ENSG00000267508|control|control|control (ssRNA)
RNA: GGGAGUUCUACAGUCCGACGAUCGGCAUGUGGUAAGGGCUUCAGUCGUAAUUCAUACCUCCUUGCCCAUCAGAGAGUGCAUAUAGAUGAGACACAGUACACACACUGUGAGCGUGGAAAGGACCUUCUGACUCAUCAAAGACUCAACAGAGGAUUGAGCAUCA
B8: chr1:180885316:180885399:+|3pUTR|ENSG00000143324|msi1_unk|FALSE|overlapping (ssRNA)
RNA: GGGAGUUCUACAGUCCGACGAUCUUGGCAGCCAUUUCUCCCAGCAGUUUUAAAGGAUGAACAUUGGAUUUCAUGCCAUCCCAUAGAAAACCUGUUUUAAAAUUUUAGGGAUCUUUACUUGGUCAUACAUGAAAAGUACACUGCCAACAGAGGAUUGAGCAUCA
B9: chr10:103999120:103999255:+|CDS|ENSG00000065613|unk|FALSE|unique (ssRNA)
RNA: GGGAGUUCUACAGUCCGACGAUCAUCUAAGGACAGACCCUAUGACUACAAAGCUGAUGUUUGGUCCCUGGGUAUCACUUUAAUAGAAAUGGCUGAGAUAGAACCACCUCAUCAUGAAUUAAAUCCAAUGCGAGUGCUGCUAAACAACAGAGGAUUGAGCAUCA
B10: chr4:4235611:4235720:-|3pUTR|ENSG00000132406|unk|total|mutant (ssRNA)
RNA: GGGAGUUCUACAGUCCGACGAUCAUGACCGUUUUGUCCGGUGACAGGACCAAAUGAAAAUAUUUUAUGUUUUCUCAUCACUUCCGAUUUUAUCAUUAUGUACAUUACUGGGUUUUCCGCAUUUCCUAAUGUGAAGUUUUAAUCCAACAGAGGAUUGAGCAUCA
B11: chr1:205790044:205790145:-|3pUTR|ENSG00000133065|msi1|FALSE|bound_elsewhere (ssRNA)
RNA: GGGAGUUCUACAGUCCGACGAUCAGAUUCUUCUGCCUCUUUCUCCUUUCCAGACCCCUACUCUGUGCAGUGCUGACCACAGCUAGAGCCACCGCCCCAUUGCUCAACCAGUAUUUAUUUCCCUAAACGACCCUUCCUCACAUUCAACAGAGGAUUGAGCAUCA
B12: chr7:128862928:128863052:+|CDS|ENSG00000128524|unk|total|mutant (ssRNA)
RNA: GGGAGUUCUACAGUCCGACGAUCUAAGCUCAUCGCAGUGAUCGGAGACGAGGACACGGUGACUGGUUUCCUGCUGGGCGGCACCGGGGAGCUUAACAAGAACCGCCAUCCCAAUUUCCUGGUGGUGGAGAAGGAUACAACCAUCAACAGAGGAUUGAGCAUCA
B13: chr2:111862450:111862553:-|CDS|ENSG00000153107|unk|total|mutant (ssRNA)
RNA: GGGAGUUCUACAGUCCGACGAUCUCUUUUUCAGGGGUGCAAAGGUUCAACAUUUCAAGCCAUAAUCAGUCUCCAAAGAGACACCGUAUUUCUCAUUCUCCAAACCGUAAUUCUAAUGGCUCCUUUCUUGCACCAGAAACGGAGCAACAGAGGAUUGAGCAUCA
B14: ENSG00000198589:be:win_8101|CDS|ENSG00000198589|bound_else_gene|NA|bound_elsewhere_windowed (ssRNA)
RNA: GGGAGUUCUACAGUCCGACGAUCGUGUUGAGUGGUUCACAAGAAGGACCAUGUCUCAUACAUUCCAUGAAUGGAGACUUGUUGAGGACCUUGGAGGGUCCUGAAAACUGCCUGAAACCAAAACUCAUUCAGGCUUCAAGAGAGCAACAGAGGAUUGAGCAUCA
B15: chr17:18931026:18931127:+|3pUTR|ENSG00000141127|msi1|total|mutant (ssRNA)
RNA: GGGAGUUCUACAGUCCGACGAUCGAUACCUGCAAUUGAAAAGCCGAAAAGAUUAUACUGUCAAGUCCAGUAAAUGACAUUUUCCGAGAUGCUUUUGCCGACAAGCAUAUGGAAUAUGUGAUUGUAUUUAUUUUCUGCAACUAACAACAGAGGAUUGAGCAUCA
B16: chr14:53951422:53951790:-|three_prime_utr|ENSG00000125378|control|control|control (ssRNA)
RNA: GGGAGUUCUACAGUCCGACGAUCUUUGGAGACAGAGGGGGAGGUGUUCAGGGGAAGGGGAAUGACAGCACUCAGACGUGGGCUAGCCCCAGCGGUGUGUUUUUGCUAUAUCAAAGCCUUUUCUGCUAGGUUUUCUGCCCGUUUCAACAGAGGAUUGAGCAUCA
B17: chr16:31060842:31061067:-|three_prime_utr|ENSG00000167394|control|control|control (ssRNA)
RNA: GGGAGUUCUACAGUCCGACGAUCCCGGGAGCCCAGCCCCCAUCGGGGGCUUCCUGUACCUCCUUUUGCCUGGCUCUGCUCUUUAGACUCCAGAUCCCUACCCCUCAGCAACUAGCUCCCCUGUCGGCCAGCUAAGAGAGCUGGCAACAGAGGAUUGAGCAUCA
B18: chr5:93620789:93620892:-|3pUTR|ENSG00000113391|unk|FALSE|unique (ssRNA)
RNA: GGGAGUUCUACAGUCCGACGAUCCAGCCCCUCAUUAGAUUGUUUUCUUCCCAGAGCCCAGGGUCGUGAUAUAUACAUCUAAAUAGCGUUUUGCAUUAUUUCUAGAUGAGUGCAACUGUCAAAGCAAUAUGGGUUCACUGGUCGCAACAGAGGAUUGAGCAUCA
B19: chr11:61866713:61866887:+|3pUTR|ENSG00000134824|msi1|FALSE|unique (ssRNA)
RNA: GGGAGUUCUACAGUCCGACGAUCCUCUCCUGUCUGAACCUGCCCUUACUGUGUUUAACCUGUUGCUCCAGGAUGCAUUCUGAUAGGAGGGGGCGGCAGGGCUGGGCCUUGUGACAAUCUGCCUUUCACCACAUGGCCUUGCCUCAACAGAGGAUUGAGCAUCA
B20: chr10:15076158:15076259:-|3pUTR|ENSG00000176244|unk|FALSE|unique (ssRNA)
RNA: GGGAGUUCUACAGUCCGACGAUCAGAUCCCUUAAGAUAAAUAUCCCCCAAAACAGUGUACCUCUAUUCCCUGCAUAAAAAUUUAGAUUUGGAAUGGUAUGACCAGAGGAAUAGAUCCACUUCAUGUUACUACAACAACAAAACCAACAGAGGAUUGAGCAUCA
B21: chr18:9859767:9859850:+|3pUTR|ENSG00000168461|msi1_unk|FALSE|overlapping (ssRNA)
RNA: GGGAGUUCUACAGUCCGACGAUCUUGUUACCUAACCAACCUUCACUGAAAGGCAAAUUUAGUUCAGGAGGUUAGUUUUUAGCUAGCUUUGGAAGUAAGCCUUUAUUUAUUACUUUUUGGAGGAAAUCAGAGAAGUGUCAAUGGCAACAGAGGAUUGAGCAUCA
B22: chr17:41586309:41586834:-|CDS|ENSG00000186847|control|control|control (ssRNA)
RNA: GGGAGUUCUACAGUCCGACGAUCGCCUGCGGGCUGGGGGGCGGCUAUGGCGGUGGCUUCAGCAGCAGCAGCAGCAGCUUUGGUAGUGGCUUUGGGGGAGGAUAUGGUGGUGGCCUUGGUGCUGGCUUGGGUGGUGGCUUUGGUCAACAGAGGAUUGAGCAUCA

The assay concerns the target MSI1 full-length (mouse, UniProt Q61474 1-362). As to the kind of experiment: nsRBNS (natural sequence RNA bind-n-seq); RBNS binding buffer (assumed for nsRBNS): 25 mM Tris pH 7.5, 150 mM KCl, 3 mM MgCl2, 0.01% Triton X-100, 500 ug/ml BSA, 20 U/ml SUPERase-In, 4 C; UNK is unkempt and MSI1 is Musashi-1; names of the RNAs are library labels; protein concentration not given here; high values mean tight binding.
Sequence of UniProt Q61474 (Q61474 whole entry): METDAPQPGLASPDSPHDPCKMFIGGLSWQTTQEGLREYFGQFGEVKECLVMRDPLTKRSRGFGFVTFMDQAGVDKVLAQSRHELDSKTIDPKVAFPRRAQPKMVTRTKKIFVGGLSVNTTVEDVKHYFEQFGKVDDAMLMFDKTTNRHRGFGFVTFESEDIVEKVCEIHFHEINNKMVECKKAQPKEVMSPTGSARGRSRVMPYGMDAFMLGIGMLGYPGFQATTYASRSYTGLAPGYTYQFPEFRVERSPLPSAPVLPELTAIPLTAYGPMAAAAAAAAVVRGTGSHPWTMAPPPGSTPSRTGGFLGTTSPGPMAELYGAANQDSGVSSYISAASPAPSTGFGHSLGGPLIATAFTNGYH
B1 gave a binding signal of 1.39 enrichment R.

B2 showed a binding signal of 3.66 enrichment R.

B3 had a binding signal of 2.41 enrichment R.

B4 yielded a binding signal of 3.01 enrichment R.

Take B5: the binding signal is 0.527 enrichment R.

As for B6, the binding signal came to 0.479 enrichment R.

In turn, B7 yielded a binding signal of 0.494 enrichment R.

The molecule B8 gave a binding signal of 0.583 enrichment R.

With B9, the binding signal amounted to 0.522 enrichment R.

Take B10: the binding signal came out at 0.581 enrichment R.

B11 came in with a binding signal of 1.33 enrichment R.

For B12, the binding signal is 0.398 enrichment R.

B13 displayed a binding signal of 0.402 enrichment R.

B14: the binding signal was determined as 0.257 enrichment R.

As for B15, the binding signal turned out to be 0.356 enrichment R.

With B16, the binding signal came out at 0.64 enrichment R.

For the molecule B17, the binding signal worked out at 0.691 enrichment R.

B18 gave a binding signal of 1.17 enrichment R.

In turn, B19 came in with a binding signal of 0.45 enrichment R.

Take B20: the binding signal was found to be 2.52 enrichment R.

B21 displayed a binding signal of 1.95 enrichment R.

Turning to B22, the binding signal amounted to 0.768 enrichment R.

Values taken from publication PMC12136788.
